# This is one part of the list. Values were computed here from the reads of four pooled replicates and scatter widely.
# Target: T1, Pho4 (S. cerevisiae) (UniProt P07270)
# T1 sequence: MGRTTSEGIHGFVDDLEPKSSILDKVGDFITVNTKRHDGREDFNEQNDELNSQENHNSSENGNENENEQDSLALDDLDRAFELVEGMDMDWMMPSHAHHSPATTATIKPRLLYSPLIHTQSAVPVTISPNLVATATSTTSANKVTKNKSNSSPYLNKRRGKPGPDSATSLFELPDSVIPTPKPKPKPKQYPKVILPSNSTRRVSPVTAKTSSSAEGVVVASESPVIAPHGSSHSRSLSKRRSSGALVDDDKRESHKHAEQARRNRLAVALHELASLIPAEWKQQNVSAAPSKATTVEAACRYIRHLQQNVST
# Assay: relative binding free energy (BET-seq); higher = weaker binding
# Conditions: reference: library average
row,Sequence,relative binding free energy
1,GAGGCCACGTGTGTGT,-0.01 kcal/mol
2,TGCGGCACGTGGCGTT,-0.11 kcal/mol
3,GTTGTCACGTGTTCTT,0.31 kcal/mol
4,AGGTCCACGTGGTGTA,-0.19 kcal/mol
5,TTATCCACGTGTTTTG,0.05 kcal/mol
6,ATTATCACGTGAGAGT,0.28 kcal/mol
7,TTTATCACGTGTGTAC,0.07 kcal/mol
8,TGAGACACGTGTGGTA,0.01 kcal/mol
9,CTTTTCACGTGGTGAG,0.11 kcal/mol
10,AGGCGCACGTGATGTT,0.14 kcal/mol
11,TTCGTCACGTGAAGGG,0.24 kcal/mol
12,ATGATCACGTGGGGCA,0.08 kcal/mol
13,TCTAGCACGTGTGTTT,-0.03 kcal/mol
14,TGGTTCACGTGGCGAC,0.2 kcal/mol
15,AGTAGCACGTGGCAGT,-0.12 kcal/mol
16,GCTATCACGTGTTTTG,0.13 kcal/mol
17,TAAGACACGTGATGGT,0.19 kcal/mol
18,GGGGGCACGTGTTTCA,-0.1 kcal/mol
19,TATGACACGTGTTAGT,-0.03 kcal/mol
20,CAGATCACGTGTGAGG,0.21 kcal/mol
21,AGGCGCACGTGGTGAT,-0.05 kcal/mol
22,CTAGTCACGTGGGGGC,0 kcal/mol
23,TTAGTCACGTGTAGAA,0.21 kcal/mol
24,TTGGGCACGTGAGTAA,0.19 kcal/mol
25,TTATGCACGTGCTATA,-0.02 kcal/mol

row,Sequence,relative binding free energy
1,TGCGGCACGTGGTGCG,-0.25 kcal/mol
2,TAATTCACGTGACGTT,0.33 kcal/mol
3,TAATGCACGTGAGCGT,0.13 kcal/mol
4,TCGATCACGTGTGAGG,0.17 kcal/mol
5,AGAGGCACGTGGAGTG,-0.15 kcal/mol
6,TTTGGCACGTGGTTAG,-0.13 kcal/mol
7,TGTAGCACGTGGCTTT,-0.25 kcal/mol
8,TTCGGCACGTGGTCTG,-0.12 kcal/mol
9,TGCTTCACGTGAAGGG,0.37 kcal/mol
10,GTGCGCACGTGGTTTA,-0.06 kcal/mol
11,CTGTACACGTGGGAGT,0.08 kcal/mol
12,GGGGCCACGTGTGGGC,0.02 kcal/mol
13,AGTACCACGTGGGAGT,-0.08 kcal/mol
14,GAATGCACGTGGCGGG,0 kcal/mol
15,CGGTGCACGTGGTGTT,-0.19 kcal/mol
16,CGATTCACGTGCGGTT,0.18 kcal/mol
17,CTGTGCACGTGTAGGG,-0.03 kcal/mol
18,GTTCACACGTGTGGGC,0.22 kcal/mol
19,TGCTTCACGTGTTTCT,0.27 kcal/mol
20,GTCGACACGTGGGGCG,-0.12 kcal/mol
21,GGTGTCACGTGAAGCG,0.25 kcal/mol
22,TGCAGCACGTGCTTGG,-0.12 kcal/mol
23,GTGCGCACGTGGGTAT,-0.19 kcal/mol
24,GGGGGCACGTGTTATC,0.01 kcal/mol
25,TGCGTCACGTGTGAAT,0.22 kcal/mol

row,Sequence,relative binding free energy
1,TTATTCACGTGTAAAG,0.4 kcal/mol
2,TTTCCCACGTGGTTTG,-0.09 kcal/mol
3,TGTGGCACGTGTGAGC,-0.01 kcal/mol
4,TGCGGCACGTGATATT,0 kcal/mol
5,AGTGGCACGTGCGGGC,-0.16 kcal/mol
6,ATGGTCACGTGGTGTG,0 kcal/mol
7,GTTGTCACGTGTGTGC,0.28 kcal/mol
8,GGTGACACGTGAAGGC,0.43 kcal/mol
9,TTCACCACGTGTTTTG,0.09 kcal/mol
10,TTGAGCACGTGCAGTT,-0.04 kcal/mol
11,TTGGCCACGTGTATTA,-0.03 kcal/mol
12,ATTGGCACGTGACGAT,0.13 kcal/mol
13,GGGAGCACGTGTTAGG,-0.12 kcal/mol
14,GGTGTCACGTGTGACG,0.2 kcal/mol
15,ATGTTCACGTGTGGCC,0.23 kcal/mol
16,TGGGACACGTGGTGTG,-0.06 kcal/mol
17,GGCATCACGTGTTGTA,0.09 kcal/mol
18,GTTAGCACGTGTATGT,0 kcal/mol
19,GGGGTCACGTGATTGG,0.32 kcal/mol
20,ACGGGCACGTGCGGTT,-0.12 kcal/mol
21,AAAGGCACGTGGGGAT,-0.08 kcal/mol
22,CTTTTCACGTGGGCGG,0.22 kcal/mol
23,TTTCGCACGTGGTGGT,-0.16 kcal/mol
24,GTGGGCACGTGCGTGT,-0.11 kcal/mol
25,ACGGGCACGTGTGGTA,-0.2 kcal/mol

row,Sequence,relative binding free energy
1,ATGGTCACGTGAGGAT,0.36 kcal/mol
2,AGTGGCACGTGATTAA,0.16 kcal/mol
3,CATTTCACGTGATTAT,0.24 kcal/mol
4,TTTGGCACGTGCAGTA,-0.11 kcal/mol
5,TAATGCACGTGATGGG,0 kcal/mol
6,TGAGTCACGTGTCTAG,0.06 kcal/mol
7,TCGTCCACGTGTGTGG,0.04 kcal/mol
8,AGGGACACGTGGTTGT,-0.06 kcal/mol
9,GTAGACACGTGGAGGT,-0.01 kcal/mol
10,TGAAGCACGTGTGTAG,-0.18 kcal/mol
11,TTAGGCACGTGATGCA,0.07 kcal/mol
12,ATGTGCACGTGAGCCT,0.23 kcal/mol
13,GAAGTCACGTGCGCGG,0.09 kcal/mol
14,TTTACCACGTGTTTAA,0.11 kcal/mol
15,TACTTCACGTGTATGG,0.24 kcal/mol
16,GGGATCACGTGTTGGG,0.17 kcal/mol
17,GTGTACACGTGTGCTT,0.14 kcal/mol
18,TGTACCACGTGGTTAT,-0.2 kcal/mol
19,ATGGTCACGTGGGAGA,0.12 kcal/mol
20,TAGGTCACGTGAGCAG,0.28 kcal/mol
21,TTGGACACGTGGTTTA,0.04 kcal/mol
22,GGGTACACGTGAGGCA,0.3 kcal/mol
23,ATTGGCACGTGATTCT,0.04 kcal/mol
24,TTGTTCACGTGTCTGT,0.23 kcal/mol
25,CTGGCCACGTGAGTAG,0.2 kcal/mol

row,Sequence,relative binding free energy
1,TGATCCACGTGGGGCT,-0.03 kcal/mol
2,TGTTGCACGTGTTGGG,-0.01 kcal/mol
3,GGATCCACGTGTTTAG,0.25 kcal/mol
4,TGGTGCACGTGTAAGG,-0.02 kcal/mol
5,CTTATCACGTGTTTGA,0.03 kcal/mol
6,GTTTTCACGTGGGAAA,0.42 kcal/mol
7,TTTACCACGTGGTTTA,-0.05 kcal/mol
8,GACGGCACGTGTGTGG,-0.04 kcal/mol
9,TCGGGCACGTGATGGC,0.08 kcal/mol
10,CTTGGCACGTGAGCTT,0.11 kcal/mol
11,AATGTCACGTGTGGGG,0.28 kcal/mol
12,GTGGACACGTGAAGGA,0.37 kcal/mol
13,GAGGCCACGTGTATGT,-0.04 kcal/mol
14,AATGGCACGTGGGTTA,-0.2 kcal/mol
15,ATGGACACGTGGTTAT,0.07 kcal/mol
16,TTCGTCACGTGTAAGT,0.05 kcal/mol
17,ATGGTCACGTGGTCTT,0.04 kcal/mol
18,TGTGACACGTGGTTAG,0.04 kcal/mol
19,TTCGTCACGTGGCTGT,0.15 kcal/mol
20,TAATACACGTGAGGTG,0.47 kcal/mol
21,GCATTCACGTGTATTT,0.16 kcal/mol
22,CTTAACACGTGTGCGT,0.09 kcal/mol
23,CAGTGCACGTGGTGTT,-0.08 kcal/mol
24,TTGGTCACGTGAAGCG,0.21 kcal/mol
25,GTGGGCACGTGGTGAG,-0.08 kcal/mol

row,Sequence,relative binding free energy
1,TGCCTCACGTGGTTGC,0.37 kcal/mol
2,GAGGTCACGTGCGGCT,0.11 kcal/mol
3,GCCGCCACGTGAGGGT,0.38 kcal/mol
4,GTTTACACGTGTGGTT,0.23 kcal/mol
5,CGGTGCACGTGCGTGA,-0.04 kcal/mol
6,ATTCGCACGTGGATTA,-0.03 kcal/mol
7,GCTGGCACGTGTGGAG,0.04 kcal/mol
8,GATTACACGTGTCGGG,0.25 kcal/mol
9,GTTGCCACGTGTGATT,0.03 kcal/mol
10,AACAACACGTGGGGAG,0.16 kcal/mol
11,AATAACACGTGTTGGT,-0.07 kcal/mol
12,ATCTGCACGTGGTGCG,-0.14 kcal/mol
13,AGAGTCACGTGAGGGT,0.25 kcal/mol
14,GGTTACACGTGAAGTC,0.42 kcal/mol
15,AGGTGCACGTGTGAAT,0.08 kcal/mol
16,TGGGACACGTGGCGTA,-0.16 kcal/mol
17,CGATTCACGTGTTGAG,0.24 kcal/mol
18,GGTGGCACGTGAGGCT,0.13 kcal/mol
19,TGTGACACGTGTTCGG,-0.09 kcal/mol
20,TTAGGCACGTGGGAAG,-0.08 kcal/mol
21,ACGATCACGTGTTATT,0.29 kcal/mol
